Consider 24 molecules from the supplement of paper PMC4604168 (melanoma cell lines).

Some of the results follow. Repeats are few or missing, and single values can be far off.
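Note: cells treated in 1,536-well plates, then fixed and DAPI-stained, with nuclei counted from automated high-throughput microscope images.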

The subject of the first test is COLO800. In words: cell count relative to DMSO control; melanoma cells; higher = more viable cells. The conditions noted are these: library dose: standard library concentration; 72 h.
Take `CC(=O)c1c(C)c2cnc(Nc3ccc(N4CCNCC4)cn3)nc2n(C2CCCC2)c1=O` [palbociclib] + O=C(Nc1cccc(Cl)c1)Nc1ncc(CCNc2ncnc3ccsc23)s1 [SNS314] (first compound 0.2 µM, partner dose 0.004 µM): the cell count stood at 57.6%.

Take `CC(=O)O[C@@]12CO[C@@H]1C[C@H](O)[C@@]1(C)C(=O)[C@H](O)C3=C(C)[C@@H](OC(=O)[C@H](O)[C@@H](NC(=O)OC(C)(C)C)c4ccccc4)C[C@@](O)([C@@H](OC(=O)c4ccccc4)[C@H]21)C3(C)C` [Docetaxel] + c1cc(-c2cnn3cc(-c4ccc(OCCN5CCCCC5)cc4)cnc23)ccn1 [Dorsomorphin] (first compound 0.0005 µM, partner dose 2 µM): the cell count amounted to 41%.

The molecule `Nc1ncn([C@H]2C[C@H](O)[C@@H](CO)O2)c(=O)n1` [decitabine] + COC(=O)c1sccc1S(=O)(=O)Nc1ccc(Nc2ccccc2)cc1OC [GSK0660] (first compound 0.5 µM, partner dose 5 µM) returned a cell count of 121%.

In turn, `CO[C@H]1C[C@@H]2CC[C@@H](C)[C@@](O)(O2)C(=O)C(=O)N2CCCC[C@H]2C(=O)O[C@H]([C@H](C)C[C@@H]2CC[C@@H](OCCO)[C@H](OC)C2)CC(=O)[C@H](C)/C=C(\C)[C@@H](O)[C@@H](OC)C(=O)[C@H](C)C[C@H](C)/C=C/C=C/C=C/1C` [everolimus] + Clc1ccc(Nc2nnc(Cc3ccncc3)c3ccccc23)cc1 [vatalanib] (first compound 0.1 µM, partner dose 10 µM) displayed a cell count of 55.5%.

The molecule `Nc1ccn([C@@H]2O[C@H](CO)[C@@H](O)C2(F)F)c(=O)n1` [gemcitabine] + OCc1c[nH]c2ccccc12 [Indole-3-carbinol] (first compound 0.002 µM, partner dose 4 µM) had a cell count of 35.7%.

The molecule `Nc1ncn([C@H]2C[C@H](O)[C@@H](CO)O2)c(=O)n1` [decitabine] + O=C(Nc1ccccc1)c1cc([N+](=O)[O-])ccc1Cl [GW9662] (first compound 0.5 µM, partner dose 10 µM) registered a cell count of 70.8%.

`Nc1ccn([C@@H]2O[C@H](CO)[C@@H](O)C2(F)F)c(=O)n1` [gemcitabine] + NC(=O)Nc1cc(-c2cccc(F)c2)sc1C(=O)N[C@H]1CCCNC1 [AZD7762] (first compound 0.002 µM, partner dose 0.1 µM) gave a cell count of 18.6%.

`Nc1nc(F)nc2c1ncn2[C@@H]1O[C@H](CO)[C@@H](O)[C@@H]1O` [fludarabine] + O=c1cc(-c2cccc3c2Sc2ccccc2S3)oc(N2CCOCC2)c1 [KU55933] (first compound 1 µM, partner dose 5 µM) yielded a cell count of 104%.

`CC(=O)O[C@@]12CO[C@@H]1C[C@H](O)[C@@]1(C)C(=O)[C@H](O)C3=C(C)[C@@H](OC(=O)[C@H](O)[C@@H](NC(=O)OC(C)(C)C)c4ccccc4)C[C@@](O)([C@@H](OC(=O)c4ccccc4)[C@H]21)C3(C)C` [Docetaxel] + CO[C@H]1C[C@@H]2CC[C@@H](C)[C@@](O)(O2)C(=O)C(=O)N2CCCC[C@H]2C(=O)O[C@H]([C@H](C)C[C@@H]2CC[C@@H](OCCO)[C@H](OC)C2)CC(=O)[C@H](C)/C=C(\C)[C@@H](O)[C@@H](OC)C(=O)[C@H](C)C[C@H](C)/C=C/C=C/C=C/1C [everolimus] (first compound 0.0005 µM, partner dose 0.1 µM) displayed a cell count of 40.6%.

In turn, `CC(=O)O[C@@]12CO[C@@H]1C[C@H](O)[C@@]1(C)C(=O)[C@H](O)C3=C(C)[C@@H](OC(=O)[C@H](O)[C@@H](NC(=O)OC(C)(C)C)c4ccccc4)C[C@@](O)([C@@H](OC(=O)c4ccccc4)[C@H]21)C3(C)C` [Docetaxel] + O=C(CCCCCCC(=O)Nc1ccccc1)NO [vorinostat] (first compound 0.0005 µM, partner dose 0.4 µM) had a cell count of 11.2%.

Turning to `Nc1ccn([C@@H]2O[C@H](CO)[C@@H](O)C2(F)F)c(=O)n1` [gemcitabine] + c1cc(-c2cnn3cc(-c4ccc(OCCN5CCCCC5)cc4)cnc23)ccn1 [Dorsomorphin] (first compound 0.002 µM, partner dose 2 µM), the cell count is 42.3%.

The subject of the next test is COLO829. The test is described as above. The conditions noted are these: library dose: standard library concentration; 72 h.
Regarding `Nc1ncn([C@H]2C[C@H](O)[C@@H](CO)O2)c(=O)n1` [decitabine] + C#Cc1cccc(Nc2ncnc3cc(OCCOC)c(OCCOC)cc23)c1 [erlotinib] (first compound 0.5 µM, partner dose 4 µM), the cell count worked out at 62.9%.

Molecule `CC(=O)O[C@@]12CO[C@@H]1C[C@H](O)[C@@]1(C)C(=O)[C@H](O)C3=C(C)[C@@H](OC(=O)[C@H](O)[C@@H](NC(=O)OC(C)(C)C)c4ccccc4)C[C@@](O)([C@@H](OC(=O)c4ccccc4)[C@H]21)C3(C)C` [Docetaxel] + OCc1c[nH]c2ccccc12 [Indole-3-carbinol] (first compound 0.0005 µM, partner dose 4 µM) had a cell count of 46.1%.

`CO[C@H]1C[C@@H]2CC[C@@H](C)[C@@](O)(O2)C(=O)C(=O)N2CCCC[C@H]2C(=O)O[C@H]([C@H](C)C[C@@H]2CC[C@@H](OCCO)[C@H](OC)C2)CC(=O)[C@H](C)/C=C(\C)[C@@H](O)[C@@H](OC)C(=O)[C@H](C)C[C@H](C)/C=C/C=C/C=C/1C` [everolimus] + COc1cc(Nc2ncc(F)c(Nc3ccc4c(n3)NC(=O)C(C)(C)O4)n2)cc(OC)c1OC [Tamatinib] (first compound 0.1 µM, partner dose 2 µM) registered a cell count of 94.8%.

In turn, `Nc1ncn([C@H]2C[C@H](O)[C@@H](CO)O2)c(=O)n1` [decitabine] + CN(C)S(=O)(=O)c1ccc2c(c1)/C(=C/c1cc3c([nH]1)CCCC3)C(=O)N2 [SU6656] (first compound 0.5 µM, partner dose 2 µM) registered a cell count of 74.1%.

In turn, `CO[C@H]1C[C@@H]2CC[C@@H](C)[C@@](O)(O2)C(=O)C(=O)N2CCCC[C@H]2C(=O)O[C@H]([C@H](C)C[C@@H]2CC[C@@H](OCCO)[C@H](OC)C2)CC(=O)[C@H](C)/C=C(\C)[C@@H](O)[C@@H](OC)C(=O)[C@H](C)C[C@H](C)/C=C/C=C/C=C/1C` [everolimus] + COc1cc2ncnc(Nc3ccc(Oc4ccccc4)cc3)c2cc1OC [SrcI1] (first compound 0.1 µM, partner dose 10 µM) came in with a cell count of 88.5%.

`CO[C@H]1C[C@@H]2CC[C@@H](C)[C@@](O)(O2)C(=O)C(=O)N2CCCC[C@H]2C(=O)O[C@H]([C@H](C)C[C@@H]2CC[C@@H](OCCO)[C@H](OC)C2)CC(=O)[C@H](C)/C=C(\C)[C@@H](O)[C@@H](OC)C(=O)[C@H](C)C[C@H](C)/C=C/C=C/C=C/1C` [everolimus] + COc1ccc(-c2ccc3c(N4CCOCC4)nc(N4C[C@@H](C)O[C@@H](C)C4)nc3n2)cc1CO [KU0063794] (first compound 0.1 µM, partner dose 0.1 µM) came in with a cell count of 48.9%.

For `CC(=O)c1c(C)c2cnc(Nc3ccc(N4CCNCC4)cn3)nc2n(C2CCCC2)c1=O` [palbociclib] + COc1ccc(Cl)c(Nc2nc3ccccc3nc2NS(=O)(=O)c2cccc(NC(=O)C(C)(C)N)c2)c1 [XL147] (first compound 0.2 µM, partner dose 4 µM), the cell count turned out to be 107%.

The molecule `CC(=O)c1c(C)c2cnc(Nc3ccc(N4CCNCC4)cn3)nc2n(C2CCCC2)c1=O` [palbociclib] + COc1ccc2c(c1)CCC1C2CCC2(C)C(NCCCCCCN3C(=O)C=CC3=O)CCC12 [U73122] (first compound 0.2 µM, partner dose 2 µM) displayed a cell count of 111%.

In turn, `Nc1ccn([C@@H]2O[C@H](CO)[C@@H](O)C2(F)F)c(=O)n1` [gemcitabine] + CO[C@@H]1[C@H](N(C)C(=O)c2ccccc2)C[C@H]2O[C@]1(C)n1c3ccccc3c3c4c(c5c6ccccc6n2c5c31)C(=O)NC4 [Midostaurin] (first compound 0.002 µM, partner dose 0.4 µM) displayed a cell count of 50.9%.

Consider `Nc1ccn([C@@H]2O[C@H](CO)[C@@H](O)C2(F)F)c(=O)n1` [gemcitabine] + Cc1nc(Nc2ncc(C(=O)Nc3c(C)cccc3Cl)s2)cc(N2CCN(CCO)CC2)n1 [dasatanib] (first compound 0.002 µM, partner dose 0.02 µM), for which the cell count is 38.2%.

Turning to `CC(=O)O[C@@]12CO[C@@H]1C[C@H](O)[C@@]1(C)C(=O)[C@H](O)C3=C(C)[C@@H](OC(=O)[C@H](O)[C@@H](NC(=O)OC(C)(C)C)c4ccccc4)C[C@@](O)([C@@H](OC(=O)c4ccccc4)[C@H]21)C3(C)C` [Docetaxel] + Cc1cc(Nc2cc(N3CCN(C)CC3)nc(/C=C/c3ccccc3)n2)n[nH]1 [ENMD2076] (first compound 0.0005 µM, partner dose 0.2 µM), the cell count was 40.2%.

`CO[C@H]1C[C@@H]2CC[C@@H](C)[C@@](O)(O2)C(=O)C(=O)N2CCCC[C@H]2C(=O)O[C@H]([C@H](C)C[C@@H]2CC[C@@H](OCCO)[C@H](OC)C2)CC(=O)[C@H](C)/C=C(\C)[C@@H](O)[C@@H](OC)C(=O)[C@H](C)C[C@H](C)/C=C/C=C/C=C/1C` [everolimus] + NCC(=O)Nc1ccc(-n2nc(C(F)(F)F)cc2-c2ccc3c(ccc4ccccc43)c2)cc1 [OSU03012] (first compound 0.1 µM, partner dose 5 µM) displayed a cell count of 59.6%.

`CC(=O)c1c(C)c2cnc(Nc3ccc(N4CCNCC4)cn3)nc2n(C2CCCC2)c1=O` [palbociclib] + Oc1cc(-c2nc(-c3ccccc3)[nH]c2-c2ccncc2)ccc1Cl [L779450] (first compound 0.2 µM, partner dose 1 µM) gave a cell count of 70.3%.
